Measurements reported in the RNAGym collection of RNA variant scans (doi:10.7554/elife.90254).
Read counts are not given, so values of variants with three or more changes are uncertain.

B1: LINE1-full (parent)
chain: UACGUAGGUGGUUUUCCCCUGAUAGUGCUAAGGGGGCCUGGAAGUUUGGACUGGGCAGAGCUCAACACAGCGUGGCAAAGUGGCUGUGGCUAGACUGCCUCUCUGGAUUCCUCGUCACUCAGCAGGGCAUCUCUGAGAGAAAUGCC

Variants of: B1
Experiment: self-cleavage, relative activity (ratio to wild type); higher = more cleavage; in vitro, sequencing; the parent is a self-cleaving ribozyme
With UACGUAGGUGGUUUUCCCCUGAUAGUGCUAAGGGGGCCUGGAAGUUUGGACUGGGCAGAGCUCAACACAGCGUGGCAAAGCGGCUGUGGCUAGACUGCCUCCCAGGAUUCCUCGUCACUCAGCAGGGCAUCUCUGAGAGAAAUGCC [U81C U102C U104A] the self-cleavage was 0.71. In the case of UACGUAGGUGGUUUUCCCCUGAUAGUGCUAAGGGGGCCUGGAAGUUUGGACUGGGCAGAGCUCAACACAGCGUGGCAAAGCGGCUGUGGCUAGACUGCCCCUCUGGAUUCCUCGUCCCUCAGCAGGGCAUCUCUGAGAGAAAUGCC [U81C U100C A117C], the self-cleavage is reported as 0. Work on UACGUAGGUGGUUUUCCCCUGAUAGUGCUAAGGGGGCCUGGAAGUUUGGACUGGGCAGAGCUCAACACAGCGUGGCAAAGCGGCUGUGGCUAGACUGCCACUCUAGAUUCCUCGUCACUCAGCAGGGCAUCUCUGAGAGAAAUGCC [U81C U100A G105A] yielded a self-cleavage of 0.89. UACGUAGGUGGUUUUCCCCUGAUAGUGCUAAGGGGGCCUGGAAGUUUGGACUGGGCAGAGCUCAACACAGCGUGGCAAAGAGGCUGUGGCUAGACUGCCUCUCUGGAUUCCUCGUCACCCAGCAGGGCAUCUCUGAGAGAAACGCU [U81A U119C U143C C146U] gave a self-cleavage of 2.66. Variant UACGUAGGUGGUUUUCCCCUGAUAGUGCUAAGGGGGCCUGGAAGUUUGGACUGGGCAGAGCUCAACACAGCGUGGCAAAGCGGCUGUGGCUAGACUGCCUCUCUGGAUUCCUCAUCACUCAGCAGGGCAACUCUGAGAGAAAUGCC [U81C G114A U130A] has a self-cleavage of 1.88. With UACGUAGGUGGUUUUCCCCUGAUAGUGCUAAGGGGGCCUGGAAGUUUGGACUGGGCAGAGCUCAACACAGCGUGGCAAAGAGGCUGUGGCUAGACUGCCUCUCUGGAUUCCUCGCCACUCAGAAGGGCAUCUCUGAGAGAAAUGCC [U81A U115C C123A] the self-cleavage was 2.42. Work on UACGUAGGUGGUUUUCCCCUGAUAGUGCUAAGGGGGCCUGGAAGUUUGGACUGGGCAGAGCUCAACACAGCGUGGCAAAGCGGCUGUGGCUAGACUGCCUCUCUGGAAUCCUCGUCACUCAGCAGGGCAUCUCUGAGAGAAACGCC [U81C U108A U143C] yielded a self-cleavage of 0.92. With UACGUAGGUGGUUUUCCCCUGAUAGUGCUAAGGGGGCCUGGAAGUUUGGACUGGGCAGAGCUCAACACAGCGUGGCAAAGCGGCUGUGGCUAGACUGCCUCUCCGGAUUCCUCGUCACUCAGCAGGGCUUCUCUGAGAGAAAUGCC [U81C U104C A129U] the self-cleavage was 1.62. For UACGUAGGUGGUUUUCCCCUGAUAGUGCUAAGGGGGCCUGGAAGUUUGGACUGGGCAGAGCUCAACACAGCGUGGCAAAGAGGCUGUGGCUAGACUGCCUCUCUGGAUUCCCCGUCACUCAGCAGGGCAUCUCUGAGAGAGAUGCC [U81A U112C A141G], the self-cleavage was 2.04. Variant UACGUAGGUGGUUUUCCCCUGAUAGUGCUAAGGGGGCCUGGAAGUUUGGACUGGGCAGAGCUCAACACAGCGUGGCAAAGCGGCUGUGGCUAGACUGCCUCUCUGGAUUCCUCGUCACUCAGCAGGGCUUCUCUGAGUGAAAUGCC [U81C A129U A138U] has a self-cleavage of 1.19. UACGUAGGUGGUUUUCCCCUGAUAGUGCUAAGGGGGCCUGGAAGUUUGGACUGGGCAGAGCUCAACACAGCGUGGCAAAGAGGCUGUGGCUAGACUGCCUCUCUGGAUUCCUCGUCACGCAGCAGGGCAUCUCAGAGAGAAAUGCC [U81A U119G U134A] showed a self-cleavage of 0. Work on UACGUAGGUGGUUUUCCCCUGAUAGUGCUAAGGGGGCCUGGAAGUUUGGACUGGGCAGAGCUCAACACAGCGUGGCAAAGCGGCUGAGGCUAGACUGCCUCUCUGGAUUCCUCGUCACUCAGCAGGGCAUCACUGAGAGAAAUGCC [U81C U87A U132A] yielded a self-cleavage of 0.21. UACGUAGGUGGUUUUCCCCUGAUAGUGCUAAGGGGGCCUGGAAGUUUGGACUGGGCAGAGCUCAACACAGCGUGGCAAAGAGGCUGUGGCUAGACUGCCUCUCUGGAUUCCACGUCACCCAGCAGGCCAUCUCUGAGAGAGAUGCC [U81A U112A U119C G127C A141G] showed a self-cleavage of 2.91. For UACGUAGGUGGUUUUCCCCUGAUAGUGCUAAGGGGGCCUGGAAGUUUGGACUGGGCAGAGCUCAACACAGCGUGGCAAAGCGGCUGCAGCUAGACUGCCUCUCUGGAUUCCUCGUCACUCAGCAGGGCAUCUCUGAGAGAAAUGCC [U81C U87C G88A], the self-cleavage was 0.14. Variant UACGUAGGUGGUUUUCCCCUGAUAGUGCUAAGGGGGCCUGGAAGUUUGGACUGGGCAGAGCUCAACACAGCGUGGCAAAGCGGCUGUGGCUAGGCUGCCUCUCUUGAUUCCUCAUCACUCAGCAGGGCAUCUCUGAGAGAAAUGCC [U81C A94G G105U G114A] has a self-cleavage of 0.18. For UACGUAGGUGGUUUUCCCCUGAUAGUGCUAAGGGGGCCUGGAAGUUUGGACUGGGCAGAGCUCAACACAGCGUGGCAAAGCGGCUGUGGCUAGACUGCCUCCCUGGAUUCCUCGUCACACAGCAGGGCAUCUCUGAGAGAAAUGCC [U81C U102C U119A], the self-cleavage was 0.34. UACGUAGGUGGUUUUCCCCUGAUAGUGCUAAGGGGGCCUGGAAGUUUGGACUGGGCAGAGCUCAACACAGCGUGGCAAAGCGGCUGUGGCUAGACUGCCUCCCUGGAUUCCUCGUCACUCAGCAGGGCAUCUCUGAGAGAAACGCC [U81C U102C U143C] gave a self-cleavage of 2.42. UACGUAGGUGGUUUUCCCCUGAUAGUGCUAAGGGGGCCUGGAAGUUUGGACUGGGCAGAGCUCAACACAGCGUGGCAAAGCGGUUGUGGCUAGGCUGCCUCUCUGGAUUCCUCGUCACUCAGCAGGGCAUCCCUGAGAGAAAUGCC [U81C C84U A94G U132C] showed a self-cleavage of 0.14. In the case of UACGUAGGUGGUUUUCCCCUGAUAGUGCUAAGGGGGCCUGGAAGUUUGGACUGGGCAGAGCUCAACACAGCGUGGCAAAGCGGCUGUGGCUAGUCUGCCCCUCUGGAUUCCUCGUCACUCAGCUGGGCAUCUCUGAGAGAAAUGCC [U81C A94U U100C A124U], the self-cleavage is reported as 0.77. With UACGUAGGUGGUUUUCCCCUGAUAGUGCUAAGGGGGCCUGGAAGUUUGGACUGGGCAGAGCUCAACACAGCGUGGCAAAGCGGCUGUGGCUAGACUGCCUCCCUGGAUUCCUCGUCACUCAGCAGGGCAUCUCCGAGAGAAAUGCC [U81C U102C U134C] the self-cleavage was 0.
